# From the supplement of paper PMC8728848
# The other results are listed elsewhere or left out.
# B1: Sebin1 (Coprinopsis cinerea), A8PEE3 (protein)
# chain: MTSPFYAHIHNVQDDNTWRFTLIFANRATADEWWRAISEAPANTSIAKSITRVTPQYYTHDVNIWNIWNFFADGNIKSISERFRGRLFIVLENDRGGRGITVIPPVPIVDHVSGNWFYIRSKTAPHLFWYYDERRSSIYASKEKRTRFKISIRNPSSQTPKNAIMINTDDVTIHIKENLYVGVDNNLGHIIPTRAYRTFKFGELESGAIAGFDVVENIEERCSSTFDGASLSISGPDSSSPGEPWELV
# How the values were obtained:
# Assay in all cases: glycan array binding signal (z-score within array); higher = stronger binding
# Details in all cases: glycan notation: IUPAC condensed, linker removed
# [1] = target: Gal(b1-4)GlcNAc(b1-3)Gal(b1-4)GlcNAc(b1-3)[Gal(b1-4)GlcNAc(b1-3)Gal(b1-4)GlcNAc(b1-6)]GalNAc
# Procedure, shortened: (§1)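 The binding signal is a Z-score computed within each array. Data were drawn from 3228 arrays in the Consortium for Functional Glycomics database, restricted to those with a known protein sequence. Scores were averaged over arrays of the same protein sequence at different concentrations or buffers, and over linkers, and negative values can be taken as non-binding.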
# [2] = target: Gal(b1-4)GlcNAc(b1-3)Gal(b1-4)GlcNAc(b1-6)[Gal(b1-3)]GalNAc
# Procedure, shortened: as §1
# [3] = target: Gal(b1-4)GlcNAc(b1-3)Gal(b1-4)[Fuc(a1-3)]GlcNAc(b1-3)Gal(b1-4)[Fuc(a1-3)]GlcNAc
# Procedure, shortened: as §1
# [4] = target: Gal(b1-4)GlcNAc(b1-3)GalNAc
# Procedure, shortened: as §1
# [5] = target: Gal(b1-4)GlcNAc(b1-3)[Fuc(a1-3)GlcNAc(b1-6)]Gal(b1-4)Glc
# Procedure, shortened: as §1
# [6] = target: Gal(b1-4)GlcNAc(b1-3)[Gal(b1-4)GlcNAc(b1-6)]Gal(b1-4)GlcNAc
# Procedure, shortened: as §1
# [7] = target: Gal(b1-4)GlcNAc(b1-3)[GlcNAc(b1-6)]Gal(b1-4)GlcNAc
# Procedure, shortened: as §1
# [8] = target: Gal(b1-4)GlcNAc(b1-6)Gal(b1-4)GlcNAc
# Procedure, shortened: as §1
# [9] = target: Gal(b1-4)GlcNAc(b1-6)GalNAc
# Procedure, shortened: as §1
# [10] = target: Gal(b1-4)GlcNAc(b1-6)[Gal(b1-3)]GalNAc
# Procedure, shortened: as §1
# [11] = target: Gal(b1-4)GlcNAc(b1-6)[Gal(b1-4)GlcNAc(b1-3)]GalNAc
# Procedure, shortened: as §1
# [12] = target: Gal(b1-4)GlcNAc6P
# Procedure, shortened: as §1
# [13] = target: Gal(b1-6)Gal
# Procedure, shortened: as §1
# [14] = target: Gal3S(b1-3)GalNAc
# Procedure, shortened: as §1
# [15] = target: Gal3S(b1-3)GlcNAc
# Procedure, shortened: as §1
# [16] = target: Gal3S(b1-3)[Fuc(a1-4)]GlcNAc
# Procedure, shortened: as §1
# [17] = target: Gal3S(b1-4)Glc
# Procedure, shortened: as §1
# [18] = target: Gal3S(b1-4)Glc6S
# Procedure, shortened: as §1
# [19] = target: Gal3S(b1-4)GlcNAc
# Procedure, shortened: as §1
# [20] = target: Gal3S(b1-4)[Fuc(a1-3)]Glc6S
# Procedure, shortened: as §1
# [21] = target: Gal3S(b1-4)[Fuc(a1-3)]GlcNAc
# Procedure, shortened: as §1
# [22] = target: Gal3S(b1-4)[Fuc(a1-3)]GlcNAc6S
# Procedure, shortened: as §1
# [23] = target: Gal3S4S(b1-4)GlcNAc
# Procedure, shortened: as §1
# [24] = target: Gal3S6S(b1-4)GlcNAc
# Procedure, shortened: as §1
# [25] = target: Gal3S6S(b1-4)GlcNAc6S
# Procedure, shortened: as §1
# [26] = target: Gal4S(b1-4)GlcNAc
# Procedure, shortened: as §1
# [27] = target: Gal4S6S(b1-4)GlcNAc
# Procedure, shortened: as §1
# [28] = target: Gal6P(b1-4)GlcNAc
# Procedure, shortened: as §1
# [29] = target: Gal6S(b1-3)GlcNAc
# Procedure, shortened: as §1
# [30] = target: Gal6S(b1-3)GlcNAc6S
# Procedure, shortened: as §1
# [31] = target: Gal6S(b1-4)Glc
# Procedure, shortened: as §1
# [32] = target: Gal6S(b1-4)Glc6S
# Procedure, shortened: as §1
# [33] = target: Gal6S(b1-4)GlcNAc
# Procedure, shortened: as §1
# [34] = target: Gal6S(b1-4)GlcNAc6S
# Procedure, shortened: as §1
# [35] = target: GalNAc(a1-3)Gal
# Procedure, shortened: as §1
# [36] = target: GalNAc(a1-3)GalNAc
# Procedure, shortened: as §1
# [37] = target: GalNAc(a1-3)GalNAc(b1-3)Gal(a1-4)Gal(b1-4)Glc
# Procedure, shortened: as §1
# [38] = target: GalNAc(a1-3)GalNAc(b1-3)Gal(a1-4)Gal(b1-4)GlcNAc
# Procedure, shortened: as §1
# [39] = target: GalNAc(b1-3)Gal
# Procedure, shortened: as §1
# [40] = target: GalNAc(b1-3)Gal(a1-4)Gal(b1-4)GlcNAc
# Procedure, shortened: as §1
# [41] = target: GalNAc(b1-3)Gal(a1-4)Gal(b1-4)GlcNAc(b1-3)Gal(b1-4)Glc
# Procedure, shortened: as §1
# [42] = target: GalNAc(b1-3)Gal(a1-6)Gal(b1-4)Glc
# Procedure, shortened: as §1
# [43] = target: GalNAc(b1-3)GalNAc
# Procedure, shortened: as §1
# [44] = target: GalNAc(b1-3)GlcNAc
# Procedure, shortened: as §1
# [45] = target: GalNAc(b1-4)Gal(b1-4)Glc
# Procedure, shortened: as §1
# [46] = target: GalNAc(b1-4)GlcNAc
# Procedure, shortened: as §1
# [47] = target: GalNAc(b1-4)GlcNAc(b1-2)Man
# Procedure, shortened: as §1
# [48] = target: GalNAc(b1-4)GlcNAc(b1-2)Man(a1-3)[GalNAc(b1-4)GlcNAc(b1-2)Man(a1-6)]Man(b1-4)GlcNAc(b1-4)GlcNAc
# Procedure, shortened: as §1
# [49] = target: GalNAc(b1-4)GlcNAc(b1-3)GalNAc(b1-4)GlcNAc
# Procedure, shortened: as §1
# [50] = target: GalNAc(b1-4)GlcNAc6S
# Procedure, shortened: as §1
# [51] = target: GalNAc(b1-6)GalNAc
# Procedure, shortened: as §1
# [52] = target: GalNAc3S(b1-4)GlcNAc
# Procedure, shortened: as §1
# [53] = target: GalNAc3S(b1-4)GlcNAc3S
# Procedure, shortened: as §1
# [54] = target: GalNAc3S(b1-4)[Fuc(a1-3)]GlcNAc
# Procedure, shortened: as §1
# [55] = target: GalNAc4S6S(b1-4)GlcNAc
# Procedure, shortened: as §1
# [56] = target: GalNAc6S(b1-4)GlcNAc
# Procedure, shortened: as §1
# [57] = target: Glc(a1-4)Glc
# Procedure, shortened: as §1
# [58] = target: Glc(a1-4)Glc(a1-4)Glc(a1-4)Glc
# Procedure, shortened: as §1
# [59] = target: Glc(a1-6)Glc(a1-6)Glc
# Procedure, shortened: as §1
# [60] = target: Glc(a1-6)Glc(a1-6)Glc(a1-6)Glc
# Procedure, shortened: as §1
# [61] = target: Glc(b1-4)Glc
# Procedure, shortened: as §1
# [62] = target: Glc(b1-6)Glc
# Procedure, shortened: as §1
# [63] = target: GlcA(b1-3)Gal
# Procedure, shortened: as §1
# [64] = target: GlcA(b1-3)GlcNAc
# Procedure, shortened: as §1
# [65] = target: GlcA(b1-6)Gal
# Procedure, shortened: as §1
# [66] = target: GlcA3S(b1-3)Gal(b1-4)GlcNAc(b1-2)Man
# Procedure, shortened: as §1
# [67] = target: GlcA3S(b1-3)Gal(b1-4)GlcNAc(b1-3)Gal(b1-4)Glc
# Procedure, shortened: as §1
# [68] = target: GlcNAc(a1-3)Gal(b1-4)GlcNAc
# Procedure, shortened: as §1
# [69] = target: GlcNAc(a1-4)Gal(b1-3)GlcNAc
# Procedure, shortened: as §1
# [70] = target: GlcNAc(a1-4)Gal(b1-4)GalNAc
# Procedure, shortened: as §1
# [71] = target: GlcNAc(a1-4)Gal(b1-4)GlcNAc
# Procedure, shortened: as §1
# [72] = target: GlcNAc(a1-4)Gal(b1-4)GlcNAc(b1-3)Gal(b1-4)Glc
# Procedure, shortened: as §1
# [73] = target: GlcNAc(a1-4)Gal(b1-4)GlcNAc(b1-3)Gal(b1-4)GlcNAc
# Procedure, shortened: as §1
# [74] = target: GlcNAc(a1-4)Gal(b1-4)GlcNAc(b1-3)Gal(b1-4)GlcNAc(b1-3)Gal(b1-4)GlcNAc
# Procedure, shortened: as §1
# [75] = target: GlcNAc(a1-4)Gal(b1-4)GlcNAc(b1-3)Gal(b1-4)[Fuc(a1-3)]GlcNAc(b1-3)Gal(b1-4)[Fuc(a1-3)]GlcNAc
# Procedure, shortened: as §1
binder,measurement,setting,value
B1,glycan array binding signal (z-score),[1],-0.394
same,glycan array binding signal (z-score),[2],0.258
same,glycan array binding signal (z-score),[3],0.035
same,glycan array binding signal (z-score),[4],-0.497
same,glycan array binding signal (z-score),[5],0.066
same,glycan array binding signal (z-score),[6],-0.435
same,glycan array binding signal (z-score),[7],-0.163
same,glycan array binding signal (z-score),[8],0.135
same,glycan array binding signal (z-score),[9],0.03
same,glycan array binding signal (z-score),[10],-0.028
same,glycan array binding signal (z-score),[11],-0.114
same,glycan array binding signal (z-score),[12],0.229
same,glycan array binding signal (z-score),[13],0.332
same,glycan array binding signal (z-score),[14],-0.501
same,glycan array binding signal (z-score),[15],-0.287
same,glycan array binding signal (z-score),[16],-0.14
same,glycan array binding signal (z-score),[17],-0.544
same,glycan array binding signal (z-score),[18],-0.211
same,glycan array binding signal (z-score),[19],-0.358
same,glycan array binding signal (z-score),[20],0.696
same,glycan array binding signal (z-score),[21],-0.372
same,glycan array binding signal (z-score),[22],0.116
same,glycan array binding signal (z-score),[23],-0.382
same,glycan array binding signal (z-score),[24],-0.138
same,glycan array binding signal (z-score),[25],0.906
same,glycan array binding signal (z-score),[26],-0.5
same,glycan array binding signal (z-score),[27],-0.099
same,glycan array binding signal (z-score),[28],-0.914
same,glycan array binding signal (z-score),[29],-0.146
same,glycan array binding signal (z-score),[30],-0.095
same,glycan array binding signal (z-score),[31],0.006
same,glycan array binding signal (z-score),[32],-0.153
same,glycan array binding signal (z-score),[33],0.056
same,glycan array binding signal (z-score),[34],0.222
same,glycan array binding signal (z-score),[35],-0.221
same,glycan array binding signal (z-score),[36],-0.559
same,glycan array binding signal (z-score),[37],0.104
same,glycan array binding signal (z-score),[38],-0.224
same,glycan array binding signal (z-score),[39],-0.567
same,glycan array binding signal (z-score),[40],0.518
same,glycan array binding signal (z-score),[41],-0.291
same,glycan array binding signal (z-score),[42],-0.144
same,glycan array binding signal (z-score),[43],-0.907
same,glycan array binding signal (z-score),[44],-0.459
same,glycan array binding signal (z-score),[45],1.79
same,glycan array binding signal (z-score),[46],-0.552
same,glycan array binding signal (z-score),[47],-0.15
same,glycan array binding signal (z-score),[48],0.758
same,glycan array binding signal (z-score),[49],0.927
same,glycan array binding signal (z-score),[50],0.053
same,glycan array binding signal (z-score),[51],-0.575
same,glycan array binding signal (z-score),[52],-0.449
same,glycan array binding signal (z-score),[53],-0.269
same,glycan array binding signal (z-score),[54],-0.86
same,glycan array binding signal (z-score),[55],-0.04
same,glycan array binding signal (z-score),[56],0.464
same,glycan array binding signal (z-score),[57],-0.581
same,glycan array binding signal (z-score),[58],-0.161
same,glycan array binding signal (z-score),[59],-0.354
same,glycan array binding signal (z-score),[60],-0.198
same,glycan array binding signal (z-score),[61],-0.448
same,glycan array binding signal (z-score),[62],-0.361
same,glycan array binding signal (z-score),[63],-0.505
same,glycan array binding signal (z-score),[64],-0.053
same,glycan array binding signal (z-score),[65],-0.346
same,glycan array binding signal (z-score),[66],-0.093
same,glycan array binding signal (z-score),[67],0.277
same,glycan array binding signal (z-score),[68],-0.577
same,glycan array binding signal (z-score),[69],-1.01
same,glycan array binding signal (z-score),[70],-0.32
same,glycan array binding signal (z-score),[71],-0.341
same,glycan array binding signal (z-score),[72],-0.355
same,glycan array binding signal (z-score),[73],-0.738
same,glycan array binding signal (z-score),[74],0.206
same,glycan array binding signal (z-score),[75],0.328
